The campaign covered roughly 350,000 compounds. About 31,000 (8.9%) were called active. Inconclusive results, whose numbers are uncertain, are shown with a selection of clear calls. The call rests on the fitted dose curve; in most records, active means well fitted inhibition curve with a large enough effect; inconclusive means small, poorly fitted or top-dose-only effect; inactive means no such curve, though single readings can be large or run the other way. Potencies beside an inconclusive call are fits to weak or partial responses and may not hold up. Some structures have more than one record in an assay (separate samples or runs), and their calls can disagree.
Molecular target: Histone-lysine N-methyltransferase EHMT2 (Homo sapiens) (UniProt Q96KQ7)
UniProt Q96KQ7, sequence (Q96KQ7 whole entry, looked up): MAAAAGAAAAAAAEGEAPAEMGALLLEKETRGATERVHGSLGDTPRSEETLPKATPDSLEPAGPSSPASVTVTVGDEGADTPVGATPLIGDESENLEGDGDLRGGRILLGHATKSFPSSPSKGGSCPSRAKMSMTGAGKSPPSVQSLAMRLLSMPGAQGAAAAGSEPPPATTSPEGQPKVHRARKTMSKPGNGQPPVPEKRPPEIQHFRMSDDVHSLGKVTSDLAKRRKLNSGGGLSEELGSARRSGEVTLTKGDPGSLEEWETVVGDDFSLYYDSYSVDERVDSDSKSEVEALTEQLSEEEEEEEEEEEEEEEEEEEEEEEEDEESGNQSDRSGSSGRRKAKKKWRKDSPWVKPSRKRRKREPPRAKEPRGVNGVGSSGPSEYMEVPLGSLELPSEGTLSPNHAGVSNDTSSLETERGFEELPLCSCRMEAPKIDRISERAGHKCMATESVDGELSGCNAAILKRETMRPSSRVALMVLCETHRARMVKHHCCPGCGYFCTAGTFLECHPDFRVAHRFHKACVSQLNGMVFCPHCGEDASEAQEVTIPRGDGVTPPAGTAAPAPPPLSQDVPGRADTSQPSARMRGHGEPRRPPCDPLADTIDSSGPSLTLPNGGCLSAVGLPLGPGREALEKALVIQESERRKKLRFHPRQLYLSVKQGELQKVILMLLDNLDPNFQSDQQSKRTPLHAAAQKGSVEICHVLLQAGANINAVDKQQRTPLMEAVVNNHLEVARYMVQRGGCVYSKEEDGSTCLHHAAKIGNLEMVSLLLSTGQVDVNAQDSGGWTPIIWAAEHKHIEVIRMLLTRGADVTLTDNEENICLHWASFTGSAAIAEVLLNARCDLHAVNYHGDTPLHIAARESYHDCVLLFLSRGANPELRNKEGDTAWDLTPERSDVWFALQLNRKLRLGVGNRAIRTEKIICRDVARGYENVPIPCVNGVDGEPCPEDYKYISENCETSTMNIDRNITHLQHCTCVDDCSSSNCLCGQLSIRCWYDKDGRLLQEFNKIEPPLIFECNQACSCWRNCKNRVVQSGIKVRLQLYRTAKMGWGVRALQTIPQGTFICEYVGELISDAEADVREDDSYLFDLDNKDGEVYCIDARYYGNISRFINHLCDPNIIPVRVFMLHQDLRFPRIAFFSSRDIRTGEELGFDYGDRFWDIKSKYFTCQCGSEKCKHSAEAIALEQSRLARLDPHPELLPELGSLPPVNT
Experiment: qHTS Assay for Inhibitors of Histone Lysine Methyltransferase G9a; further: nearly all actives have a fitted effect of over 75% in size
Conditions: G9a H3K9 monomethylation, AlphaScreen, 2 h; activity, negative = inhibition: at 59 µM (top of the series) unless noted
Method in brief: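 Using a bead-based AlphaScreen, monomethylated H3K9 product from 2 h room-temperature reactions (G9a 20 nM, peptide 500 nM, SAM 20 uM) was detected with 0.5 ug/mL rabbit anti-H3K9me1 antibody.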
On the % scale 0 is the no-effect control and ±100 the full control effect; potency means the concentration at half of the fitted maximal effect; tags describe the fitted curve by direction and shape.

SMILES | Potency | activity, negative = inhibition
COc1ccc(C(CNC(=O)COc2ccccc2OC)N(C)C)cc1OC (stereo not given) | inconclusive: 89.1 µM [inhibitor, single point] | –
Cc1cccc(C)c1NC(=O)CCCSc1nnc(-c2ccc(F)cc2)n1-c1ccccc1 | inconclusive: 39.8 µM [inhibitor, single point] | –
O=S1(=O)C=C(SCCN2CCCC2)c2ccccc21 | inconclusive: 28.2 µM [inhibitor, single point] | –
COc1ccc(-c2c[n+]3c4n2CCCCC4=C(c2ccc(Br)cc2)C3)cc1 | active: 8.91 µM | –
NC1=NC(=O)CC(C(=O)Nc2cccc3ccccc23)S1 (stereo not given) | inconclusive: 89.1 µM [inhibitor, single point] | –
O=C(CSc1nnc(-c2ccco2)n1Cc1ccccc1)c1ccccc1 | inconclusive: 5.01 µM [inhibitor, single point] | –
CC(C)n1c(CN2CCN(Cc3ccccc3)CC2)nc2ccccc21 | inconclusive: 44.7 µM [inhibitor, partial curve, poor fit] | –
COc1cc(SC)ccc1C(=O)N1CCN(c2ccc(O)cc2)CC1 | active: 15.8 µM | –
CNC(=S)NNC(=O)c1ccccc1Br | inconclusive: 31.6 µM [inhibitor, single point] | –
Cn1cc(CN2CCC(C(=O)N3CCCCC3)CC2)c(-c2ccccc2F)n1 | inconclusive: 39.8 µM [inhibitor, single point] | –
CCN(CCCNC(=O)C1CCN(S(=O)(=O)N2CCC3(CC2)OCCO3)CC1)c1ccccc1 | – | inconclusive: -84.3% [inhibitor]
CCN(CC)CCn1c(=N)n(CCOc2ccccc2Cl)c2ccccc21 | inconclusive: 15.8 µM [inhibitor, partial curve, poor fit] | –
CCN1CCN(c2ccc(S(=O)(=O)N3CCCC3)cn2)CC1 | inconclusive: 25.1 µM [inhibitor, full curve] | –
CC(C)(C)NC(=O)NC(=O)CSc1ncc(C(F)(F)F)cc1Cl | – | inactive: 22.9% [at 12.7 µM]
O=C(Oc1ccccc1Cl)c1ccc2c(=O)n3c(nc2c1)CCC3 | inconclusive: 25.1 µM [inhibitor, single point] | –
O=C(CCC1CCCCC1)NNC(=O)NC12CC3CC(CC(C3)C1)C2 | inconclusive: 89.1 µM [inhibitor, single point] | –
Cc1ccc(S(=O)(=O)N2CCN(C(=O)CN3CCCSc4ccccc43)CC2)cc1 | – | inactive: 0.605% [at 2.33 µM]
COc1cccc(-n2ccnc2SCC(=O)Nc2cc(C)on2)c1 | – | inactive: -28.4% [at 102 µM]
Cc1cccc(-c2nc(CS(=O)CC(=O)NCc3ccc(Cl)cc3)c(C)o2)c1 (stereo not given) | inconclusive: 20 µM [inhibitor, partial curve, poor fit] | –
Cc1ccc(NCC(=O)N/N=C\c2ccc[nH]2)cc1 | inconclusive: 56.2 µM [inhibitor, partial curve, poor fit] | –
CC(C)(C)NC(=O)C(c1ccc(F)cc1)N(Cc1ccco1)C(=O)Cn1nnc(-c2cccs2)n1 (stereo not given) | inconclusive: 7.94 µM [inhibitor, full curve, poor fit] | –
O=C(c1cc([N+](=O)[O-])cc([N+](=O)[O-])c1)N(Cc1nnc(-c2ccccc2Cl)o1)C1CC1 | inconclusive: 56.2 µM [inhibitor, partial curve, poor fit] | –
CCOC(=O)c1c(C)oc2nc(C)nc(NCC3CCN(Cc4ccccc4C)CC3)c12 | – | inactive: -14.3%

SMILES | Potency | activity, negative = inhibition
O=C(O)c1cc(N/N=C/c2ccc3c(c2)OCCO3)ccc1Cl | inconclusive: 25.1 µM [inhibitor, single point] | –
COc1cc(CN2CCN(C(=O)CC(C)C)CC2)cc(OC)c1OC | inconclusive: 7.08 µM [inhibitor, partial curve, poor fit] | –
ON1C(c2ccccc2)CC2(O)c3nonc3CCC12 (stereo not given) | inconclusive: 89.1 µM [inhibitor, partial curve, poor fit] | –
COc1ccc2c(c1)CCN=C2Cc1ccc(OC)c(OC)c1 | active: 3.98 µM | –
CCCC[C@@H]1CNC(=O)C(=O)N1CC(C)(C)C | – | inactive: 14.1%
Cc1ccc(C2=NOC(=O)/C2=C\C=C\c2ccccc2)cc1 | active: 2.82 µM | –
CCC(CC)n1[nH]c(=O)c2c(C)cc(C)nc21 | inconclusive: 56.2 µM [inhibitor, partial curve, poor fit] | –
CCCC[C@H]1COCCS(=O)(=O)N1Cc1ccc(C)cc1 | inconclusive: 70.8 µM [inhibitor, partial curve, poor fit] | –
COc1ccc(CNC(=O)C(OC(C)=O)c2ccccn2)cc1 (stereo not given) | inconclusive: 79.4 µM [inhibitor, partial curve, poor fit] | –
CCN(C(=O)COC(=O)C1CC1)c1c(N)n(Cc2ccccc2)c(=O)[nH]c1=O | inconclusive: 6.31 µM [inhibitor, single point] | –
CN(Cc1cccc(F)c1)C(=O)CN1C(=O)NC2(CCc3ccccc32)C1=O (stereo not given) | inconclusive: 4.47 µM [inhibitor, partial curve, poor fit] | –
Cc1oc2ccc(O)c(CN3CCN(C)CC3)c2c1C(=O)Nc1ccc(C(C)C)cc1 | – | inactive: 6.12%
O=C(O)/C(=C/c1ccco1)c1ccccc1 | inconclusive: 79.4 µM [inhibitor, single point] | –
CCC(C)c1ccccc1N1CC(C(=O)Nc2ccc(N3CCOCC3)cc2)CC1=O (stereo not given) | – | inactive: 2.13% [at 2.33 µM]
CCOc1ccc2nc(CN3CCN(Cc4ccccc4OCC)C(CCO)C3)ccc2c1 (stereo not given) | inconclusive: 79.4 µM [inhibitor, single point] | –
Cc1ccc(S(=O)(=O)n2nc(-c3ccccc3)nc2NCc2ccccc2Cl)cc1 | – | inactive: 15.3%
Nc1nc(SCC(=O)N2CCN(c3ccccc3)CC2)n[nH]1 | active: 39.8 µM | –
CC(C)(C)NC(=O)/C(=C\c1ccco1)NC(=O)c1cccs1 | – | inactive: 0.247%
c1ccc(CSc2nnc(Cc3ccccc3)o2)cc1 | – | inconclusive: -82.3% [inhibitor]
O=C(CCC(=O)OCc1ccc(Br)cc1)Nc1ccccc1 | – | inactive: 11.5%
CCc1ccc(NC(=O)Cn2c(=O)n(Cc3ccc4c(c3)OCO4)c(=O)c3oc4ccccc4c32)cc1 | – | inactive: -4.24%
COc1cccc(OC)c1C(=O)Nc1cc(Cl)ccc1N1CCOCC1 | inconclusive: 79.4 µM [inhibitor, single point] | –
C/C(=N\Nc1ccc(F)cc1F)c1cccs1 | active: 25.1 µM | –

SMILES | Potency | activity, negative = inhibition
CN1C(=O)N(C)c2ccc(Br)c3cccc1c23 | – | inactive: 21.9% [at 102 µM]
CCOC(=O)NC(O)C(=O)c1ccc(F)cc1 (stereo not given) | inconclusive: 89.1 µM [inhibitor, single point] | –
CC(C)N(C(=O)c1sc2cc([N+](=O)[O-])ccc2c1Cl)C(C)C | inconclusive: 89.1 µM [inhibitor, single point] | –
COc1ccc(CNc2nc(-c3ccco3)nn2S(=O)(=O)c2ccc3ccccc3c2)cc1OC | inconclusive: 20 µM [inhibitor, single point] | –
CCN(CC)S(=O)(=O)c1ccc(NC(=O)COC(=O)c2ccc(-n3nc(C)cc3C)cc2)cc1 | inconclusive: 7.08 µM [inhibitor, single point] | –
CCC(OC(=O)C1=Cc2ccccc2OC1)C(=O)NCc1ccco1 (stereo not given) | inconclusive: 0.282 µM [inhibitor, partial curve, poor fit] | –
O=C(CC1N=C2c3ccccc3N=C(SCc3ccc(F)cc3)N2C1=O)NCc1ccco1 (stereo not given) | – | inactive: -19.2%
CCOc1ccccc1CN1C(=O)c2ccccc2C1C(=O)NC1CCCCCC1 (stereo not given) | – | inactive: -40.2%
O=[N+]([O-])c1cccc(OCC(O)CN2CCN(S(=O)(=O)c3cc(Cl)ccc3Cl)CC2)c1 (stereo not given) | inconclusive: 79.4 µM [inhibitor, single point] | –
O=C(Nc1ccc(O)cc1C(=O)O)c1ccc2c(c1)C(=O)N(Cc1ccco1)C2=O | – | inconclusive: -83.9% [inhibitor]
COc1ccc(N(/N=C2\Sc3ccccc3C2=O)C(C)=O)cc1 | inconclusive: 56.2 µM [inhibitor, partial curve, poor fit] | –
Fc1ccc(SCCc2ccncc2)cc1 | active: 50.1 µM | inactive: 4.85% [at 12.7 µM]
Cc1ccc(C)c(CN2C(=O)COc3ccc(C(=O)c4ccccc4C(=O)O)cc32)c1 | – | inactive: 6.96% [at 102 µM]
O=C(CSCc1ccco1)N1CCc2ccccc21 | active: 70.8 µM | –
O=C(CN1CCN(Cc2ccc3c(c2)OCO3)CC1)Nc1ccc2c(c1)OCCO2 | – | inactive: -3.32% [at 12.7 µM]
CCOC(=O)c1ccccc1NC(=O)c1ccc2c(SCC(=O)O)c3c(nc2c1)CCCC3 | inconclusive: 89.1 µM [inhibitor, single point] | –
CC1CCCCC1NC(=O)NC(=O)COC(=O)C1=NN(c2ccccc2)C(=O)CC1 (stereo not given) | inconclusive: 17.8 µM [inhibitor, single point] | –
CC(C)NC(=O)CSCc1ccccc1Cl | inconclusive: 25.1 µM [inhibitor, single point] | –
O=C(N/N=C/c1ccccn1)c1cc(C2CC2)[nH]n1 | inconclusive: 0.891 µM [inhibitor, full curve, poor fit] | –
NC(=O)c1nnn(-c2nonc2N)c1-c1ccc([N+](=O)[O-])cc1 | inconclusive: 70.8 µM [inhibitor, partial curve, poor fit] | –
CCN1CCN(C(=O)c2ccc3c(c2)N(Cc2c(F)cccc2Cl)C(=O)c2ccccc2S3)CC1 | – | inactive: -33.4%
Cc1ccccc1COC(=O)c1ccc(-c2nnn(Cc3ccccc3F)n2)cc1 | – | inactive: 34.5%
O=C(CN1C(=O)c2ccccc2S1(=O)=O)NCc1cccs1 | inconclusive: 89.1 µM [inhibitor, single point] | –
